{
  "source": "PubChem BioAssay AID1671193",
  "about": "(National Center for Advancing Translational Sciences (NCATS), 2021)",
  "note": "Values joined by “and” are separate entries in the source; they are usually repeats but may differ in a detail not shown here. Equal entries are not always repeated. About 180 (0.12%) of roughly 150,000 compounds were called active. Inconclusive results, whose numbers are uncertain, are shown with a selection of clear calls. Calls come from the whole dose curve; as a rule, active = well fitted cell-killing curve with a large enough effect; inconclusive = small, poorly fitted or top-dose-only effect, or effect the other way; inactive = flat fitted curve, though single readings scatter. Where the call is inconclusive, the potency comes from a doubtful curve fit. Potency is the fitted concentration of half-maximal effect; tags give direction and shape of the fitted curve.",
  "data": [
    {"assay": "GF-AFC viability counterscreen for inhibitors of alpha-synuclein gene (SNCA) expression; note: nearly all actives have a fitted effect of over 30% in size", "conditions": "HEK-293-SNCA-luc viability, GF-AFC fluorescence, 24 h; series mostly up to 57.1 µM", "how_it_was_run": "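Cytotoxicity counterscreen: after 24 h compound treatment of genome-edited SNCA-luciferase HEK-293 cells, live-cell protease substrate GF-AFC read by fluorescence after 30 min; activity scaled between DMSO (0%) and medium-only (-100%), curves Hill-fitted.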", "values": [
      {"smiles": "CCc1cccc(C)c1Nc1c(-c2ccc(N(C)C)cc2)nc2cnccn12", "Potency": "inconclusive: 28.2 µM [rising, partial curve]"},
      {"smiles": "COc1cc(Br)cc2cc(S(=O)(=O)c3ccccc3)c(=O)oc12", "Potency": "inconclusive: 39.8 µM [rising, single point]"},
      {"smiles": "COc1ccc(OCc2nc(C3CN(C(=O)CCCc4ccccc4)C3)no2)cc1", "Potency": "inconclusive: 5.62 µM [cytotoxic, single point]"},
      {"smiles": "Cn1ccc2c(C(=O)NCc3cccnc3)nc(-c3cccc(F)c3)cc21", "Potency": "inactive"},
      {"smiles": "Cc1nn2c(c1-c1ccnn1C(C)C)N(Cc1cccc(C#N)c1)CCC2", "Potency": "inconclusive: 7.94 µM [cytotoxic, full curve]"},
      {"smiles": "CCN(Cc1ccccc1)C(=O)c1cn(-c2cccc(OC)c2)c(=O)c2ccccc12", "Potency": "inconclusive: 35.5 µM [cytotoxic, single point]"},
      {"smiles": "COCCC1(NS(C)(=O)=O)CCN(S(=O)(=O)c2ccc(C#N)cc2)CC1", "Potency": "inconclusive: 6.31 µM [cytotoxic, single point]"},
      {"smiles": "O=C1CN(S(=O)(=O)c2ccccc2)CC2(CCCCC2)N1CC1CC1", "Potency": "inactive"},
      {"smiles": "O=C(NC1C[C@H]2CC[C@@H](C1)N2C(=O)C1CCCCC1)c1ccc(F)cc1", "note": "(some centres undefined)", "Potency": "inconclusive: 0.708 µM [cytotoxic, partial curve, poor fit]"},
      {"smiles": "Cc1ccc(C(=O)c2cn(Cc3ccccc3)c3ccccc3c2=O)cc1", "Potency": "inconclusive: 28.2 µM [cytotoxic, partial curve]"},
      {"smiles": "CCOc1ccccc1C(=O)Nc1cccc(-c2nnc3n2CCCC3)c1", "Potency": "inactive"},
      {"smiles": "CCC(C)CC(=O)OC1C(=O)C(CO)=CC(O)C1C(C)C", "note": "(centres undefined)", "Potency": "active: 18.9 µM"},
      {"smiles": "CC(C)c1nc(CN(C)C(=O)N[C@H](C(=O)N[C@@H](Cc2ccccc2)C[C@H](O)[C@H](Cc2ccccc2)NC(=O)OCc2cncs2)C(C)C)cs1", "Potency": "inconclusive: 4.29 µM [cytotoxic, full curve, poor fit] and inconclusive: 23.8 µM [cytotoxic, partial curve, poor fit]"},
      {"smiles": "COc1ccccc1N1CCN(CC[C@@H]2CC[C@H](O)[C@@H](C(=O)Nc3ccccc3)O2)CC1", "Potency": "inconclusive: 5.62 µM [cytotoxic, partial curve]"},
      {"smiles": "CCCn1c(=N)c(C(=O)NCc2ccco2)cc2c(=O)n3cc(C)ccc3nc21", "Potency": "inconclusive: 10 µM [rising, partial curve, poor fit]"},
      {"smiles": "O=C(c1cccnc1)N1CCC2(CNc3ccccc3[S+](=O)([O-])N2)C1", "note": "(centres undefined)", "Potency": "inconclusive: 1.12 µM [rising, full curve]"},
      {"smiles": "Cc1nn2c(c1-c1ccccc1Oc1ccccc1)N([S+](=O)([O-])c1cccnc1)CCC2", "Potency": "inactive"},
      {"smiles": "COC(=O)c1ccccc1NC(=O)Cn1c(=O)n(-c2ccc(C)cc2)c(=O)c2ccccc21", "Potency": "inconclusive: 3.98 µM [cytotoxic, full curve]"},
      {"smiles": "CCn1ncc(N2CCCC(CC(=O)NCCC3=CCCCC3)C2)cc1=O", "note": "(centres undefined)", "Potency": "inactive"},
      {"smiles": "Nc1ncnc2c1c(-c1cccc(OCc3ccccc3)c1)cn2C1CC(CN2CCCC2)C1", "note": "(centres undefined)", "Potency": "inconclusive: 15 µM [cytotoxic, partial curve, poor fit]"},
      {"smiles": "COc1cc(NC(=O)c2cnc3c(-c4ccc(F)cc4)c(C)nn3c2C)cc(OC)c1", "Potency": "inconclusive: 1.78 µM [rising, partial curve, poor fit]"},
      {"smiles": "COc1cccc(C2c3c(-c4ccccc4O)n[nH]c3C(=O)N2CCc2ccc(OC)c(OC)c2)c1", "note": "(centres undefined)", "Potency": "inconclusive: 25.1 µM [cytotoxic, single point]"},
      {"smiles": "Cn1c(=O)c(CCc2ccccc2)nc2cnc(Oc3ccccc3)nc21", "Potency": "inconclusive: 3.55 µM [cytotoxic, single point]"},
      {"smiles": "CCc1cnc(C)nc1-c1cc(NCc2ccccn2)nc2[nH]ccc12", "Potency": "inconclusive: 4.47 µM [cytotoxic, full curve, poor fit]"},
      {"smiles": "COc1ccc(C)cc1Nc1nc(-c2ccc(OC)c(OC)c2)no1", "Potency": "inactive"},
      {"smiles": "Cc1ccc2c(c1)nc1n2[C@@H](CNS(=O)(=O)Cc2ccccc2)COC1", "Potency": "inconclusive: 22.4 µM [cytotoxic, partial curve]"},
      {"smiles": "CC(C)NC(=O)[C@@H]1C[C@@H](NC(=O)c2cnc3c(O)cccn3c2=O)CN1C", "Potency": "inconclusive: 25.1 µM [rising, partial curve, poor fit]"},
      {"smiles": "COc1ccc(N2CC(NC(=O)COc3ccccc3C)CC2=O)cc1OC", "note": "(centres undefined)", "Potency": "inconclusive: 39.8 µM [rising, single point]"},
      {"smiles": "CN(C)c1ncc2nc(-c3cccs3)c(=O)n(C3CC3)c2n1", "Potency": "inconclusive: 11.2 µM [rising, partial curve]"},
      {"smiles": "CCOc1cccc(CN2CC(Oc3ccc(-c4noc(COC)n4)cc3)C2)c1", "Potency": "inactive"},
      {"smiles": "CCC1=C[C@@H]2CN(C1)Cc1c([nH]c3ccccc13)[C@@](C(=O)OC)(c1cc3c(cc1OC)N(C)[C@@H]1[C@@](O)(C(=O)OC)[C@H](OC(C)=O)[C@]4(CC)C=CCN5CC[C@]31[C@@H]54)C2", "Potency": "inconclusive: 1.52 µM [cytotoxic, full curve]"},
      {"smiles": "NC(=O)Cc1c[nH]c2ncc(-c3cccc(OC(F)(F)F)c3)cc12", "Potency": "inactive"},
      {"smiles": "Cc1ccc(Cn2c(C(=O)O)c(CNCc3cccs3)c3ccc(C)cc32)cc1", "Potency": "inconclusive: 15.8 µM [cytotoxic, partial curve, poor fit]"},
      {"smiles": "Cc1noc(C)c1-c1cc2c(cc(C)n2C)c(-c2cccnc2)n1", "Potency": "inactive"},
      {"smiles": "COc1ccccc1OCCCN1CC[C@@](C)(O)[C@@H](O)C1", "Potency": "inactive"},
      {"smiles": "Cn1c(=O)c(=O)n(C)c2cc(N3CCOCC3)c(NS(=O)(=O)c3ccc(F)c(Cl)c3)cc21", "Potency": "inconclusive: 5.62 µM [cytotoxic, partial curve]"},
      {"smiles": "CN1CCN(c2ccc(C(=O)Nc3n[nH]c4ccc(Cc5cc(F)cc(F)c5)cc34)c(NC3CCOCC3)c2)CC1", "Potency": "inconclusive: 37.7 µM [cytotoxic, single point] and active: 27 µM"},
      {"smiles": "O=C(NCc1cccnc1)C1CCN(C(=O)c2ncn3c2COC(c2ccc(F)cc2)C3)CC1", "note": "(centres undefined)", "Potency": "inactive"},
      {"smiles": "CN(C)c1ccc(C2Nc3ccc4ccccc4c3C3=C2C(=O)CC(C)(C)C3)cc1Br", "note": "(centres undefined)", "Potency": "inconclusive: 37.7 µM [cytotoxic, partial curve, poor fit]"}
    ]}
  ]
}
